Data: PMC7819943, “Rice protein-binding microarrays: a tool to detect cis-acting elements near promoter regions in rice”
This is one part of the list.

Each sequence was assayed against T1, OsWOX13 (Oryza sativa, UniProt Q5QMM3 1-267) (assay: protein-binding microarray (RPBM); PBS, 2% BSA, 51.3 ng/ul salmon testes DNA, 50 uM zinc acetate, 200 nM TF, 25 C, 1 h; high values mean tight binding). Settings: protein: recombinant; tags: N-terminal polyhistidine and DsRed monomer fusion (pET32a); label: CyDye5-dUTP incorporated in the synthesized complementary strand; 3' TTTTT single-stranded linker to array surface; dsDNA, one strand shown.
T1 sequence: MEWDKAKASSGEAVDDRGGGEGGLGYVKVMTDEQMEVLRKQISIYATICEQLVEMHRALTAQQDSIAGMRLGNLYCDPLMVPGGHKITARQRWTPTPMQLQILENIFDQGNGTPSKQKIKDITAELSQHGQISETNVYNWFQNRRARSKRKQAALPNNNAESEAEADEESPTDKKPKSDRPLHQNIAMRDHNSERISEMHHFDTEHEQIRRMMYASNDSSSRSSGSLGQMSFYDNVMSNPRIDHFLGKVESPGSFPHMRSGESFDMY
In short: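 In PBS with 2% BSA, salmon testes DNA and 50 µM zinc acetate, 200 nM protein was incubated on a custom Agilent array at 25 °C for 1 h and then washed off. The array had been made double-stranded by primer extension with Cy5-dUTP and blocked with 2% BSA. The proteins were transcription factors fused N-terminally to polyhistidine and DsRed, expressed in E. coli BL21-CodonPlus and purified on Ni–NTA. The binding signal is per-feature fluorescence intensity (arbitrary units) from an Axon 4000B scanner.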

Sequence	binding signal
CTCGTAGCAAATTAATTAGAACGGCACACATAAATGAGCACGGAGTCACCTAGTGCAG	16400 fluorescence intensity (a.u.)
CACTAATTCATAACAGATCGAACAGGAACTGTACCCTAAGCGGAGTCACCTAGTGCAG	7090 fluorescence intensity (a.u.)
TTCCTGTTTACGACACATAAATAAAGTTAATAATTTGCGGCGGAGTCACCTAGTGCAG	3510 fluorescence intensity (a.u.)
CACCACAATTAATTATCTCAATTTAGTATTTCTTTAATAGCGGAGTCACCTAGTGCAG	22900 fluorescence intensity (a.u.)
TATTAAATTGACTATAGATGATTTGGAGCTAGTAATTGGCCGGAGTCACCTAGTGCAG	36800 fluorescence intensity (a.u.)
CGTCACAACATGGGATTGATTGGTGAGTGGTTAATATTTTCGGAGTCACCTAGTGCAG	27100 fluorescence intensity (a.u.)
ACATCTATCATTGAAAGGCAACCGATTAGGTTAAATATCACGGAGTCACCTAGTGCAG	7310 fluorescence intensity (a.u.)
CATGCCAATTGCAAGTTGATGACTGAATAGGGAATACAATCGGAGTCACCTAGTGCAG	3260 fluorescence intensity (a.u.)
ATCAATACTTAATTAATTATATATTAATAGATAACCTCATCGGAGTCACCTAGTGCAG	30900 fluorescence intensity (a.u.)
CAGATGAGAATAACGAGAGATTGATATCTCCCCTTTGCCTCGGAGTCACCTAGTGCAG	7640 fluorescence intensity (a.u.)
GATTAATTAGGCTTCATAAATTCGTCTCGCAGTTTACAGGCGGAGTCACCTAGTGCAG	30800 fluorescence intensity (a.u.)
GTAAATAAAATCAAACCACTGCACAAGGTCCAGTTTGAGTCGGAGTCACCTAGTGCAG	4150 fluorescence intensity (a.u.)
TTTAATTGCAGCCGTTTCGTCCACTCTAATACACAAATCACGGAGTCACCTAGTGCAG	10400 fluorescence intensity (a.u.)
TCTCCAATCAATGGTGTCTGGGTTCAGTCACTCCATACGTCGGAGTCACCTAGTGCAG	26600 fluorescence intensity (a.u.)
GCTGATGAAACTGATCCATACCGTACCGTACCATTGCCAACGGAGTCACCTAGTGCAG	10500 fluorescence intensity (a.u.)
CTAAATAGAACATTCAAAATAATCAAATAATAATGGCATGCGGAGTCACCTAGTGCAG	10300 fluorescence intensity (a.u.)
AGAAAACGAATAGATGATGAGATAAAATACATTTCAGGATCGGAGTCACCTAGTGCAG	3280 fluorescence intensity (a.u.)
CAAGATTGGCATGTCACCTTTGCAAACAATGCATGTTAGGCGGAGTCACCTAGTGCAG	33000 fluorescence intensity (a.u.)
GCTCCGGCGAGGCGAGGTCGGAGATCCCACCGCCGTGTCGCGGAGTCACCTAGTGCAG	65500 fluorescence intensity (a.u.)
CGTCCCTAAATAGATTTTGGTTGGATGTGATGCATTCTAGCGGAGTCACCTAGTGCAG	4420 fluorescence intensity (a.u.)
TAATTATATTGGTATTAATCTGAAGTTTTAATTTGTTCCTCGGAGTCACCTAGTGCAG	3770 fluorescence intensity (a.u.)

Sequence	binding signal
ATTTTAATCTAAATTTAAAACCTTCAACTCATATATAATACGGAGTCACCTAGTGCAG	3380 fluorescence intensity (a.u.)
GATTAATGATGAAACCCATTCCATAACCCTGGACTAATTCCGGAGTCACCTAGTGCAG	5370 fluorescence intensity (a.u.)
GTGGCACTGAATCACTGATTGAATTGTACGTATGATCACACGGAGTCACCTAGTGCAG	30800 fluorescence intensity (a.u.)
TTTTCTTGATTAATTAAATATAAATTTGCATTTCATTTCACGGAGTCACCTAGTGCAG	16900 fluorescence intensity (a.u.)
TATATATATATATATATATATATATTTCATATGAAACACACGGAGTCACCTAGTGCAG	28900 fluorescence intensity (a.u.)
TTTGACCAATTTGGCAGTCAACAAAGCAAAGAGTAGTAGGCGGAGTCACCTAGTGCAG	3540 fluorescence intensity (a.u.)
CATAATCAAATTACATCTTATTTGTACATATTATTATTCTCGGAGTCACCTAGTGCAG	15500 fluorescence intensity (a.u.)
TTTCGCGTGTACACTAATTATATACATTTATCTATTTATGCGGAGTCACCTAGTGCAG	3740 fluorescence intensity (a.u.)
GTTAGAAAATTAACAGATGACACCTGAAGTTTAGTTACATCGGAGTCACCTAGTGCAG	3800 fluorescence intensity (a.u.)
GTGGCATTGAACATCAAATTGATCTCATCCCTGGAGCTACCGGAGTCACCTAGTGCAG	5210 fluorescence intensity (a.u.)
GCTGATATATTATACTAATATATATGTAATAAACAGTGGTCGGAGTCACCTAGTGCAG	8040 fluorescence intensity (a.u.)
CCATTGACTGGATTGTAGTATAACAAGATGGATGATGCATCGGAGTCACCTAGTGCAG	32700 fluorescence intensity (a.u.)
TGGAAGTCAAGTCACTAATTGGAAGAAGATGGTGATAATGCGGAGTCACCTAGTGCAG	16600 fluorescence intensity (a.u.)
TTGAAATTAGAAGATGGACATTATAGTTTGATGAGGAGCACGGAGTCACCTAGTGCAG	16900 fluorescence intensity (a.u.)
ATGTTTGATTGCATTTACTGTGTCCCATGAGAGGTAGAGGCGGAGTCACCTAGTGCAG	39200 fluorescence intensity (a.u.)
TCAAAACTGACAAATAAGTAAAGGGGAGAGAATAATTCGACGGAGTCACCTAGTGCAG	3240 fluorescence intensity (a.u.)
GGATCCATCAATTTAAGTGAAAATTAACGATGAGATTAGACGGAGTCACCTAGTGCAG	15600 fluorescence intensity (a.u.)
ATGATAATCATATTTGATTTTAAAATCTTAAGGAATTCAACGGAGTCACCTAGTGCAG	15000 fluorescence intensity (a.u.)
AACGTACAGTAGATTATTGATTAGCAACAGATTCTCACTGCGGAGTCACCTAGTGCAG	23200 fluorescence intensity (a.u.)
GCAAAATTTTGCTTAGGTCTGATTGCAACACTTGCATCCTCGGAGTCACCTAGTGCAG	9330 fluorescence intensity (a.u.)
AGTTAAATTTTAACTCATGGTGACGTGGACGAAACTCTGACGGAGTCACCTAGTGCAG	4740 fluorescence intensity (a.u.)
